From PubChem BioAssay AID1745845 (National Center for Advancing Translational Sciences (NCATS), 2022)
The whole screen tested about 360,000 compounds, of which about 2,600 (0.72%) were called active. Inconclusive means that the source gave no clear call. Such entries were picked first, then a sample of the others. Calls come from the whole dose curve; as a rule, active = well fitted inhibition curve with a large enough effect; inconclusive = small, poorly fitted or top-dose-only effect; inactive = no such curve, though single readings can be large or run the other way. Where the call is inconclusive, the potency comes from a doubtful curve fit.

assay: Primary qHTS for Inhibitors of ATXN expression; conditions: HEK-293 ATXN2-luciferase reporter, luminescence, 24 h; activity change, negative = inhibition: at 57 µM (top of the series); note: nearly all actives have a fitted effect of over 55% in size
In short: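 ATXN2-luciferase reporter cells (luciferase flanked by upstream and downstream ATXN2 gene portions) were treated 24 h at 37 °C with compounds at up to 57 uM. SteadyGlo luminescence gave expression; GF-AFC fluorescence gave viability.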
% is set by controls: 0 for no effect and ±100 for the full control effect; potency is the fitted concentration of half-maximal effect; tags give direction and shape of the fitted curve.

With COc1ccc(N2CCN(CC(O)c3c[nH]c4ccc(OC)cc34)CC2C)cc1 (stereo unspecified) as the compound, how does the Potency read?
The Potency was inconclusive: 31.6 µM [inhibitor, single point].

Which Potency does the source give for CCCC(=O)Nc1ccc(C2C(=O)c3ccccc3C2=O)cc1 here?
The Potency was inconclusive: 39.8 µM [inhibitor, single point].

Which Potency does the source give for COc1ccc(C[C@H]2CN3C(=NC[C@@H]3Cc3ccc(O)cc3)N2C[C@H](C)NC(=O)c2ccc(C)c(Br)c2)cc1 here?
The Potency was inconclusive: 25.1 µM [inhibitor, partial curve, poor fit].

With CC(COc1cccc2ccccc12)CN1CCN(C)CC1 (stereo unspecified) as the compound, how does the Potency read?
Its Potency is inconclusive: 17.8 µM [inhibitor, partial curve].

With CCc1cc2c(Nc3ccc(O)cc3)nc(C)nc2s1 as the compound, how does the Potency read?
The Potency was inconclusive: 22.4 µM [inhibitor, partial curve, poor fit].

With Cc1oc2c(c1C(=O)NCc1cccnc1)C(=O)c1ccccc1C2=O as the compound, how does the Potency read?
The Potency was active: 2.82 µM.

With Cc1ccc(S(=O)(=O)N(CC(=O)NCc2ccc(F)cc2)C(=O)N2CCN(C)CC2)cc1 as the compound, how does the “activity change, negative = inhibition” value read?
Its value is inactive: -4.62%.

For Cn1nnnc1Sc1ncnc2scc(-c3ccccc3C(F)(F)F)c12, which Potency is on record?
Its Potency is inconclusive: 31.6 µM [inhibitor, single point].

Which Potency does the source give for CCOC(=O)C1=C(CN(C)Cc2ccccc2)NC(=O)NC1c1ccc(OC(C)C)cc1 (stereo unspecified) here?
Its Potency is inconclusive: 28.2 µM [inhibitor, single point].

Which Potency does the source give for O=c1c2c(nc3c(-c4cccc(Br)c4)c[nH]n13)CCCC2 here?
Its Potency is inconclusive: 11.2 µM [inhibitor, partial curve, poor fit].

Which Potency does the source give for CCCCN(C)CC(O)Cn1cc(/C=C/C(=O)c2ccc(OCC)cc2)c2ccccc21 (stereo unspecified) here?
The Potency was inconclusive: 39.8 µM [inhibitor, single point].

With COC(=O)c1cc(=O)nc(NN=Cc2ccc(C)cc2)s1 as the compound, how does the “activity change, negative = inhibition” value read?
The value was inactive: 10.9%.

For COc1ccc(C)cc1NC(=O)CNc1ccccc1CN(C)C1CCCCC1, which “activity change, negative = inhibition” value is on record?
Its value is inactive: -16%.

Which Potency does the source give for CN(CCOc1ccc(Cl)cc1)C(=O)c1cc(-c2ccco2)nc2ccccc12 here?
The Potency was inconclusive: 35.5 µM [inhibitor, single point].

Which Potency does the source give for C/C(=N/NC(=O)c1ccc(Cl)s1)c1ccc(NC(=O)COc2ccc(Cl)cc2)cc1 here?
Its Potency is inconclusive: 31.6 µM [inhibitor, partial curve, poor fit].

For CCn1cc(C(=O)NC2CC(C)(C)Cc3c2cnn3-c2cccc(F)c2)cn1 (stereo unspecified), which “activity change, negative = inhibition” value is on record?
The value was inactive: 8.28%.

Which Potency does the source give for Cc1nn(-c2ccccc2)c2sc(C(=O)N(CC(=O)NC3CCCC3)Cc3ccco3)cc12 here?
The Potency was inconclusive: 39.8 µM [inhibitor, partial curve, poor fit].

With CCOC(=O)c1[nH]c(C)c(C(=O)NCCc2ccccc2)c1C as the compound, how does the “activity change, negative = inhibition” value read?
Its value is inactive: 18.4%.

Which “activity change, negative = inhibition” value does the source give for CC(C)CNC(=O)c1ccccc1NC(=O)CN(c1ccc2c(c1)OCCO2)S(C)(=O)=O here?
The value was inactive: 7.03%.

For COc1cc(NC(=O)c2ccc(-c3ccc(Br)cc3)o2)ccc1NC(=O)C(C)C, which Potency is on record?
Its Potency is inconclusive: 35.5 µM [inhibitor, single point].

For CCOc1cc(C(=S)N2CCOCC2)ccc1OS(=O)(=O)c1ccc(C)cc1, which “activity change, negative = inhibition” value is on record?
The value was inactive: -11.7%.

With Cc1ccc(CNC(=O)C2CC(c3cccc([N+](=O)[O-])c3)=NO2)o1 (stereo unspecified) as the compound, how does the “activity change, negative = inhibition” value read?
Its value is inactive: 58.9%.

With CCN(CC)CCNC(=O)c1c(C)[nH]c(C=C2C(=O)Nc3ccc(F)cc32)c1C as the compound, how does the Potency read?
The Potency was active: 44.4 µM.

Which Potency does the source give for CCCOc1ccc(CNC(=O)CCC(=O)n2ncc3cc(C)ccc32)cc1 here?
Its Potency is inconclusive: 39.8 µM [inhibitor, single point].

With COc1ccc2c3n(c(=NC(=O)c4cccnc4)nc2c1OC)CCN3 as the compound, how does the Potency read?
Its Potency is inconclusive: 43.2 µM [inhibitor, partial curve, poor fit].

Which Potency does the source give for CC(=NNc1nc2ccccc2o1)c1ncccn1 here?
Its Potency is inconclusive: 1.12 µM [inhibitor, full curve, poor fit].

Which Potency does the source give for Cc1ccc(-c2nc(SCC(=O)Nc3cc(C)on3)c3c(=O)n(C)c(=O)n(C)c3n2)cc1 here?
Its Potency is inconclusive: 0.794 µM [inhibitor, partial curve, poor fit].

For COc1ccccc1NC(=O)c1c(NC(=O)c2cccs2)sc2c1CCC(C(C)(C)C)C2 (stereo unspecified), which “activity change, negative = inhibition” value is on record?
Its value is inactive: -3.35%.

Which Potency does the source give for O=C(c1cc(O)c(O)c([N+](=O)[O-])c1)c1ccccc1F here?
Its Potency is inconclusive: 22.4 µM [inhibitor, partial curve, poor fit].

Which Potency does the source give for COc1cc2c(cc1OC)C(c1ccc(-c3ccccc3Cl)o1)=NCC2 here?
Its Potency is active: 35.5 µM.

Which Potency does the source give for NC1=NC[C@@H](Cc2ccc(O)cc2)N1CCC12CC3CC(CC(C3)C1)C2 here?
Its Potency is inconclusive: 31.6 µM [inhibitor, single point].

Which “activity change, negative = inhibition” value does the source give for COc1ccccc1NC(=O)CSc1nc(-c2cccc(Cl)c2)nc2c1Cc1c(CO)cnc(C)c1O2 here?
Its value is inactive: 11.5%.

Which Potency does the source give for O=C(CNC(=O)c1ccncc1)N/N=C/c1cc(Br)ccc1OCc1ccccc1 here?
Its Potency is inconclusive: 33.6 µM [inhibitor, single point].

For COc1ccc(-c2coc3c(C(=O)NCC4CCOCC4)cccc23)c(C)c1, which Potency is on record?
Its Potency is inconclusive: 6.31 µM [inhibitor, partial curve, poor fit].

With Cc1ccccc1N=Nc1ccc(O)c2ncccc12 as the compound, how does the Potency read?
Its Potency is inconclusive: 7.94 µM [inhibitor, partial curve, poor fit].

Which “activity change, negative = inhibition” value does the source give for CN(/N=C/c1ccc(O)cc1O)c1ncc(C(F)(F)F)cc1Cl here?
Its value is inactive: -28.2%.

With CC(C)(C)c1ccc(-n2nc(C#N)c(Cl)cc2=O)cc1 as the compound, how does the Potency read?
Its Potency is inconclusive: 39.8 µM [inhibitor, single point].

Which Potency does the source give for CCOc1cc(/C=C(/C#N)c2ccc(Cl)cc2)cc(Cl)c1OCC(=O)O here?
Its Potency is inconclusive: 6.7 µM [inhibitor, full curve, poor fit].

For CC(=NNc1nc2ccccc2o1)c1cc2ccccc2cn1, which Potency is on record?
The Potency was inconclusive: 0.336 µM [inhibitor, full curve, poor fit].

With Cc1ccc(-n2cc(CN3CCC(CO)(Cc4cccc(C(F)(F)F)c4)CC3)cn2)cc1 as the compound, how does the activity change, negative = inhibition read?
The activity change, negative = inhibition was inactive: -33.6% [at 11.3 µM].

With N#C/C(=C\c1ccc([N+](=O)[O-])o1)C(=O)Nc1ccc(F)cc1 as the compound, how does the Potency read?
The Potency was inconclusive: 37.7 µM [inhibitor, single point].

For CC(=O)C(C)n1c(CN(C)Cc2ccccc2)nc2c1c(=O)n(C)c(=O)n2C (stereo unspecified), which “activity change, negative = inhibition” value is on record?
Its value is inactive: -7.78%.

With CN(C)C(=O)c1cccc(-c2cnc3c(NC=O)cc(-c4ccccc4N(C)C)cn23)c1 as the compound, how does the Potency read?
The Potency was inconclusive: 28.2 µM [inhibitor, single point].

Which Potency does the source give for Cn1c(=O)c2c(nc(NCc3ccccc3)n2Cc2ccc(Cl)c(Cl)c2)n(C)c1=O here?
Its Potency is inconclusive: 28.2 µM [inhibitor, partial curve].

Which “activity change, negative = inhibition” value does the source give for Cc1cc(CC(C)C)n(-c2nc3ccccc3c(=O)n2OCC(=O)N(C)C)n1 here?
Its value is inactive: 27.9%.

With COc1ccc(C)cc1NC(=O)c1cc(S(=O)(=O)NCCC2=CCCCC2)ccc1F as the compound, how does the “activity change, negative = inhibition” value read?
Its value is inactive: -10.8%.

For FC(F)(F)c1cc(CCN2C(=S)NC[C@@H]2c2ccccc2)cc(C(F)(F)F)c1, which Potency is on record?
Its Potency is inconclusive: 39.8 µM [inhibitor, single point].

Which Potency does the source give for Cc1ccccc1NC(=O)CSc1nc2ccc(NC(=O)c3ccco3)cc2s1 here?
The Potency was inconclusive: 39.8 µM [inhibitor, single point].

For CCCCC[C@@H](C)N1C[C@@H](COCc2ccccc2)Oc2cc(N3CC[C@@H](N(C)C)C3)ccc2S1(=O)=O, which Potency is on record?
The Potency was inconclusive: 22.4 µM [inhibitor, single point].

Which Potency does the source give for Cc1ccccc1-c1ccc2c(c1)O[C@@H](CN(C)C(=O)Nc1ccc(C(F)(F)F)cc1)[C@H](C)CN([C@@H](C)CO)S2(=O)=O here?
Its Potency is inconclusive: 35.5 µM [inhibitor, single point].

Which Potency does the source give for Cc1cc(C)c(C(=O)N2CCCC(CNC(=O)C3(c4ccc(Cl)cc4)CC3)C2)c(=O)[nH]1 (stereo unspecified) here?
Its Potency is inconclusive: 33.6 µM [inhibitor, single point].

With N/C(=N\OC(=O)/C=C/c1ccccc1Cl)c1ccccn1 as the compound, how does the Potency read?
Its Potency is active: 15.8 µM.

For O=C(Nc1ccc(F)cc1)C1C(c2ccccc2)C1(Cl)Cl (stereo unspecified), which Potency is on record?
The Potency was inconclusive: 20 µM [inhibitor, partial curve].

Which “activity change, negative = inhibition” value does the source give for CC(=O)Nc1ccc(Nc2ccc(S(=O)(=O)C(F)(F)F)cc2[N+](=O)[O-])cc1 here?
Its value is inactive: -16.1%.

With CC(=O)c1ccc(OC(C)C)c(CSc2nc(O)cc(=O)[nH]2)c1 as the compound, how does the “activity change, negative = inhibition” value read?
The value was inactive: 0.843%.

With CCN(CCCCOC(=O)c1ccc(OC)c(OC)c1)C(C)Cc1ccc(OC)cc1 (stereo unspecified) as the compound, how does the Potency read?
Its Potency is inconclusive: 25.1 µM [inhibitor, partial curve].

For COc1ccc(-c2nc(SCCOc3cc(C)ccc3C(C)C)n3[nH]c(=O)cc3n2)cc1, which Potency is on record?
The Potency was inconclusive: 25.1 µM [inhibitor, single point].

For CCCCN(Cc1ccco1)C(=O)C1CCCN(c2ncnc3c2nc2n3CCCCC2)C1 (stereo unspecified), which Potency is on record?
The Potency was inconclusive: 20 µM [inhibitor, single point].

Which Potency does the source give for CCc1cc[n+](C2=C([O-])c3ccccc3C(=O)/C2=N\S(=O)(=O)c2cccs2)cc1 here?
Its Potency is inconclusive: 15 µM [inhibitor, partial curve, poor fit].

Which “activity change, negative = inhibition” value does the source give for Cc1nnc(NC(=O)CSc2nnc(CNC(=O)c3ccc(F)cc3)o2)s1 here?
Its value is inactive: -21.3%.

Which “activity change, negative = inhibition” value does the source give for CCC(=O)NC(c1cccs1)c1cc([N+](=O)[O-])c2cccnc2c1OC (stereo unspecified) here?
Its value is inactive: 5.61%.

Which Potency does the source give for COc1ccc2c(CNCCc3ccccc3OC)c(C(=O)O)n(Cc3ccc(F)cc3Cl)c2c1 here?
The Potency was inconclusive: 39.8 µM [inhibitor, single point].

For Cc1ccc(C)c(NC(=S)N(CCN(C)C)C(C)c2ccccn2)c1 (stereo unspecified), which “activity change, negative = inhibition” value is on record?
Its value is inactive: 4.29%.

With COc1cccc(OC)c1C(=O)OCC(=O)NCc1ccco1 as the compound, how does the “activity change, negative = inhibition” value read?
The value was inactive: 8.92%.

With Nc1cc(-c2ccc(Br)cc2)nn1S(=O)(=O)c1cccc2nsnc12 as the compound, how does the Potency read?
The Potency was inconclusive: 22.4 µM [inhibitor, partial curve, poor fit].

With CCN1C(=O)/C(=C/c2cccs2)SC1=Nc1ccc(OC)cc1 as the compound, how does the “activity change, negative = inhibition” value read?
Its value is inactive: -6.46%.
